From the supplement of paper PMC12217912
The other results are listed elsewhere or left out. The full chains were built here from the parent and the listed change. Inactive controls read about 0.05.

B1: TEV protease; numbered along this chain (parent)
chain: MGESLFKGPRDYNPISSSICHLTNESDGHTTSLYGIGFGPFIITNKHLFRRNNGTLVVQSLHGVFKVKDTTTLQQHLVDGRDMIIIRMPKDFPPFPQKLKFREPQREERICLVTTNFQTKSMSSMVSDTSCTFPSGDGIFWKHWIQTKDGQCGSPLVSTRDGFIVGIHSASNFTNTNNYFTSVPKNFMELLTNQEAQQWVSGWRLNADSVLWGGHKVFMVKPEEPFQPVKEATQL

Variants of: B1
Assay: raw area under fraction-flipped curve 0-4 h after induction (AUC4h, not background-subtracted), DNA-recorder readout of cleavage of the substrate (dimensionless); higher = more cleavage of the substrate by the protease variant
Conditions: temperature: 34 °C; time window: 0-4 h after rhamnose induction
Procedure: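 In vivo DNA recorder in E. coli TOP10(DE3) ΔrhaA at 34 °C. Each TEVp single-site mutant (parent TEVp 0) is paired with a single-site variant of the 7-mer TEVs (canonical ENLYFQ|S). The substrate sits between flexible linkers in a Bxb1-sfGFP-TEVs-SsrA fusion, so cleavage stabilises Bxb1 and speeds flipping of a recombination array, read by NGS. The value is the raw area under the fraction-flipped curve over 0-4 h after rhamnose induction (AUC4h), with ≥20 reads per time point. It is not background-subtracted; inactive controls average about 0.047.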
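Note: Bxb1 expression induced with 0.2% (w/v) L-rhamnose at OD600 near 0.5, cultures sampled hourly, flipped fraction per protease–substrate barcode pair counted by paired-end Illumina sequencing.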

Row | Variant | area with substrate ENLAFQS | area with substrate ENLCFQS | area with substrate ENLDFQS | area with substrate ENLEFQS | area with substrate ENLFFQS | area with substrate ENLHFQS | area with substrate ENLIFQS | area with substrate ENLKFQS | area with substrate ENLLFQS | area with substrate ENLMFQS | area with substrate ENLNFQS | area with substrate ENLPFQS | area with substrate ENLQFQS | area with substrate ENLRFQS | area with substrate ENLSFQS | area with substrate ENLVFQS | area with substrate ENLTFQS | area with substrate ENLWFQS | area with substrate ENLGFQS
1 | T23S | 0.0344 | 0.0633 | 0.0611 | 0.0773 | 0.0731 | 0.0734 | 0.0802 | 0.0716 | 0.0662 | 0.0747 | 0.0613 | 0.058 | 0.0631 | 0.072 | 0.0537 | 0.0959 | – | – | –
2 | S26K | 0.0597 | 0.0564 | 0.0707 | 0.0525 | 0.0626 | 0.0657 | – | 0.07 | – | – | 0.0561 | 0.0785 | 0.0678 | – | 0.0586 | 0.0694 | 0.0816 | 0.0682 | –
3 | S26F | 0.0657 | 0.0631 | 0.0605 | 0.0667 | 0.0669 | 0.0676 | 0.0643 | 0.068 | 0.0559 | 0.0796 | 0.0569 | – | 0.0449 | 0.0634 | 0.0561 | – | – | 0.0556 | –
4 | S26C | 0.0575 | 0.0575 | 0.0612 | 0.0738 | 0.0725 | 0.075 | 0.0768 | 0.0736 | – | – | 0.0673 | 0.0769 | 0.064 | 0.0644 | 0.0619 | 0.0747 | – | 0.0641 | 0.0455
5 | H21W | 0.0518 | – | 0.0411 | 0.0421 | 0.0756 | 0.0663 | 0.0835 | 0.0788 | 0.0353 | 0.0726 | 0.0596 | 0.0747 | 0.102 | 0.0668 | 0.0513 | 0.0954 | – | 0.0726 | 0.067
6 | H21D | 0.0555 | – | 0.0704 | 0.051 | 0.061 | 0.0569 | – | 0.0603 | 0.0565 | 0.0631 | 0.0424 | 0.0508 | 0.0509 | 0.0738 | 0.0603 | – | – | 0.0526 | 0.0347
7 | H21G | 0.0635 | 0.0699 | 0.0518 | 0.0541 | 0.0801 | 0.0629 | 0.0865 | 0.0647 | 0.075 | 0.0631 | 0.0579 | 0.0612 | 0.0793 | 0.0547 | 0.0607 | 0.0754 | 0.0477 | 0.068 | 0.065
8 | H21N | 0.0609 | 0.0508 | 0.0609 | 0.0686 | 0.0812 | 0.0587 | 0.0674 | 0.0713 | 0.0649 | 0.0627 | 0.0686 | 0.0417 | – | 0.0609 | 0.056 | – | – | 0.0664 | 0.0928
9 | S17Q | 0.0644 | 0.0675 | 0.0742 | 0.0575 | 0.0829 | 0.073 | 0.0897 | 0.0879 | 0.0687 | – | 0.0741 | 0.0469 | 0.064 | – | 0.069 | 0.0879 | – | 0.0644 | 0.053
10 | S17F | 0.0887 | 0.0723 | 0.0609 | – | 0.0798 | 0.0569 | 0.0864 | 0.0825 | 0.063 | 0.0719 | 0.0522 | 0.0548 | – | 0.0588 | 0.0597 | 0.0702 | – | 0.0591 | –
11 | S17D | 0.0673 | – | 0.0639 | 0.0348 | 0.088 | 0.0718 | 0.0835 | 0.085 | 0.078 | 0.0537 | 0.0646 | 0.0666 | 0.0654 | 0.0875 | 0.0679 | 0.081 | – | 0.0609 | 0.0477
